In the RNAGym collection of RNA variant scans (doi:10.7554/elife.90254):
Read counts are not given, so values of variants with three or more changes are uncertain.

B1: LINE1-mini (parent)
chain: GGCAGAGCUCAACACAGCGUGGCAAAGUGGCUGUGGCUAGACUGCC

Variants of: B1
Experiment: self-cleavage, relative activity (ratio to wild type); higher = more cleavage; in vitro, sequencing; the parent is a self-cleaving ribozyme

Row | Variant | self-cleavage
1 | GGCAGAUCACAACACAGCGUGACAAAGUGGCUGUGGUUAGACUGCC [G7U U9A G22A C37U] | 0.04
2 | GGCAAGGCUCAACAUAGCGUGGCAAAGUCGCUGUGGCUAGACUGCC [G5A A6G C15U G29C] | 0.05
3 | CUCAGAGCUCAACACAGCGUGGCAAAGUGGCUGUUGCUAGACUGCC [G1C G2U G35U] | 0.09
4 | GGCAGAGCUCAACACAUCGUGGUAAAUUGGCUCUGGCUAGACUGCC [G17U C23U G27U G33C] | 0.08
5 | GGCAGAUCUGUACACAGCGUGGCAAAGUGGCUGUGGCUAGACUGCC [G7U C10G A11U] | 0.02
6 | GGCAGAGCUGAACACAGCGUGGUAAAGUGCCUGUGGCUAGACUGGC [C10G C23U G30C C45G] | 0.02
7 | GGCAGAGCGCAACACAGCGUGGAAGCGUGGCUGUGGCUAGACUGCC [U9G C23A A25G A26C] | 0.17
8 | GGCAGAGCUAAACACAGCGUGGCAAAGUGACUGUGGCUAGAAUGCC [C10A G30A C42A] | 0.06
9 | GGCAGAGCUCAAUACAGCGAGGCAAAGUGGCUAUGGCUAAACUGCC [C13U U20A G33A G40A] | 0.02
10 | AGCAGAGCACAACACAGCGUGGCAUAGUGGCUGUUGCUAGACUGCC [G1A U9A A25U G35U] | 0.2
11 | GGCAGAGCGCAUCACAGCGUGGCAAAGUGGCUGUGGUUAGACUGCC [U9G A12U C37U] | 0.06
12 | GGCAGAGCUCAACAAAGCGUGGCAAAGUGGCUGUGACUAGAGUGCC [C15A G36A C42G] | 0.01
13 | GGCAGAGUUCAACACAGCGUGGCAAAGUGGAUGUUGCUAGCCUGCC [C8U C31A G35U A41C] | 0.06
14 | GGCAGAGCUAAACUCAGCGUGGCAAUAUGGCUGUGGCUAGACUGCC [C10A A14U A26U G27A] | 0.1
15 | GGCAAAGCUAAACACAUCGUGGCAAUGUGGCUGUGGCUAGCCUGAC [G5A C10A G17U A26U A41C C45A] | 0
16 | GGCAGAGCUCAACAAAGCGUGGCAGAAUGGCUGUGGCUACACCGCC [C15A A25G G27A G40C U43C] | 0.02
17 | GGUAGGGCAUAACACAGCGUGGCAAAGUGGCGGUGGCUAGACUGCC [C3U A6G U9A C10U U32G] | 0.04
18 | GGCAGAGUUCAACACAGCGUGGCAAAGUGGCUGUGGCUACACUCAC [C8U G40C G44C C45A] | 0.01
19 | GGCAGAGCUCAACACAGCGUUGCAAAGUGGCUGAGGCUUGACUGUC [G21U U34A A39U C45U] | 0.2

Row | Variant | self-cleavage
20 | GGCAGAGCUCAAGACAGCGUGUCAAAGUGGCGGUGACUAGACUGCC [C13G G22U U32G G36A] | 0.26
21 | GGCAGGGCUCAACAAAGCGUGGCAAAGUGACUGUGGUUAGACUGCC [A6G C15A G30A C37U] | 0.13
22 | GGCAGGGCUCAACACAGCGCGGCAAAGUGGCUGUGGGUAGACUGCC [A6G U20C C37G] | 0.02
23 | GGCAGAUCUCAACACUGCGUGGCAAAGUGGCUGUGGCUAGACGGCC [G7U A16U U43G] | 0.23
24 | CGCAGAGUUCAACACAGCGUGGAAAAGUGGCUGUGGCUAGACUGCC [G1C C8U C23A] | 0
25 | GGCAGGGCUCAACUCAGCGGGGCAAAGUGGCUGUGGCUAGCCUGCC [A6G A14U U20G A41C] | 0.06
26 | GGCAGAGAUCAACACAGCGUGGCAAAGUGGGUGUAGCUAGACUGCC [C8A C31G G35A] | 0.36
27 | GGAAGAGCACAACACAGUGUGGCAAAGUGGCUGUGGCUAGACUGCC [C3A U9A C18U] | 0.8
28 | GGCAGAGCUCAACACAGCGCGGCAAAGUGUCUGUCGCUCGACUGCC [U20C G30U G35C A39C] | 0.02
29 | GGCAGAGCUCAACACAGCGUGGCAAAGUGACUGUACCUAGACAGCC [G30A G35A G36C U43A] | 0.06
30 | GGCAGAGCUCAACACAGAGAGGUAAAGUGGGUGUGGCUAGUCUGCC [C18A U20A C23U C31G A41U] | 0.01
31 | GUUAGAGCUCAACACAGCGUGGCAAAGUGGCUUUGGCUAGACUGCC [G2U C3U G33U] | 0.05
32 | GUCAGAGCUCAACACAGCGUGGCUCAGUGGCUUUGGCUAGACUGCC [G2U A24U A25C G33U] | 0.02
33 | GGCAGAGCUCUAUACAGCGUGGUAAAGUGGCUGUCGCUAAACUGAC [A11U C13U C23U G35C G40A C45A] | 0
34 | GGCAGGGCUAAUCUCAGCGUGGCAAAGUGGCUGUGGCAAGCCUGCC [A6G C10A A12U A14U U38A A41C] | 0.01
35 | GGCAGAGCUAAACACAGCGUGGCAAAGUGCCUGUGGCUAGACUUCC [C10A G30C G44U] | 0.08
36 | GGAAGAGCUCAACAGAGCGUGGCAAAGUGGCUGUGGCUAGCCUGCC [C3A C15G A41C] | 0.08
37 | GGCAGAGCUCAACACAGCGUGGCAAAGUGGCUUUGUCUAGACUCCC [G33U G36U G44C] | 0.03
38 | GGCGCAGCUUAACGCAGCGUGGCAAAGUGGCUGUGGCUAGACUUCA [A4G G5C C10U A14G G44U C46A] | 0.03

Row | Variant | self-cleavage
39 | GCCAGAGCUCAACUCCGCGUGGCAAAGUGGCUGUGGCUAUACUGCC [G2C A14U A16C G40U] | 0.46
40 | GGCAGAGCUUAACACAGCGUGGCAUAGUGGCUGUGGCUAGACUGUC [C10U A25U C45U] | 0.17
41 | GGCAGAGCUCAAGACCGCGUGGGAAAGUGGCUGUGGCUAGGCUCCC [C13G A16C C23G A41G G44C] | 0
42 | GGCAAAGCUCAACACAGCAUGGAAAAGUGGCUGUGGCUAGAAUGCC [G5A G19A C23A C42A] | 0.2
43 | GCCAGAGCUCAACACAACGUGGCAAAGUGGCUGUGGCAAGACUGCC [G2C G17A U38A] | 0.11
44 | GGCAGAGCUCAACACAGCGUGACAAGGUAGCUGAGGCUAAACUGCC [G22A A26G G29A U34A G40A] | 0.02
45 | GGCAGAGCUCCACACAGCGUGGCAAAGUGGCUGUGUCUAGAGUGCC [A11C G36U C42G] | 0.03
46 | GUCAGAGCUCAGCACAGCGUGGCAAAGUGGCUGUGGCAAGACUGCC [G2U A12G U38A] | 0.02
47 | GGCAGAGCUCAUCACAGGGUGGCAAAGUGGCUGCGGCUAGACUGCA [A12U C18G U34C C46A] | 0.02
48 | AGCAGAGCUCAACACAGCGAGGCAAAGUGGCUGUGGCUAUACUGCC [G1A U20A G40U] | 0.04
49 | GGGAGACCUCAACACAGCAUGACAAAGUGGCUGUGGCUAGACUGCG [C3G G7C G19A G22A C46G] | 0.04
50 | GGUAGAGCUCAACUCAGCGUGGCAAAGUGGCUGUCGCUAGACUGCC [C3U A14U G35C] | 0.52
51 | GGCAGAGCUUAACACAGCGAGGCAAAGUGGAUGUGGCUAGACUGCC [C10U U20A C31A] | 0.01
52 | CGCAGAGCUCAACACAGCGUGGCAAAGUGGCUGUGGCUAGCUCGCC [G1C A41C C42U U43C] | 0.03
53 | GGCAGAGCUCAAAACAGCGUGGCAAAGUGGCUGUGGCUAGACGGAC [C13A U43G C45A] | 0.35
54 | GGCAGAGCUCAAGACAGCAUGGCAAAGUCGCUGUGGUUAGAUUGCC [C13G G19A G29C C37U C42U] | 0.09
55 | GGCAGAGCUCAACACAGCGUGGUAAAGUGGGUGUGGCUAGCCUGCC [C23U C31G A41C] | 0.03
56 | GUCAGAGCUCAACACAGCGUGGCAUAGUGGCUGUGGCUAGACUGCG [G2U A25U C46G] | 0.06
